PubChem BioAssay AID588342 (National Center for Advancing Translational Sciences (NCATS), 2011)
The whole screen tested about 360,000 compounds, of which about 25,000 (6.9%) were called active. This list was built around the results that the source calls inconclusive (neither active nor inactive); the mix of calls is not that of the screen. Calls come from the whole dose curve; as a rule, active = well fitted inhibition curve with a large enough effect; inconclusive = small, poorly fitted or top-dose-only effect; inactive = flat fitted curve, though single readings scatter. Potencies beside an inconclusive call are fits to weak or partial responses and may not hold up.

biological target: Luciferin 4-monooxygenase (Photinus pyralis) (UniProt P08659); assay: qHTS profiling assay for firefly luciferase inhibitor/activator using purifed enzyme and Km concentrations of substrates (counterscreen for miR-21 project); settings: purified FLuc, luminescence inhibition; activity change, negative = inhibition: at 57.5 µM (top of the series); note: nearly all actives have a fitted effect of over 55% in size;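 for activity change, negative = inhibition: plate controls were vehicle for no effect and reference inhibitor for full effect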
Procedure, shortened: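 Purified P. pyralis luciferase, 10 nM final, with Km-level 10 uM D-luciferin and 10 uM ATP in 50 mM Tris acetate pH 7.5, 10 mM Mg acetate, 0.01% Tween-20, 0.05% BSA; 6-point qHTS titration about 60 µM downward; luminescence read.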
Potency is the fitted concentration of half-maximal effect; tags give direction and shape of the fitted curve.

Chain of UniProt P08659 (P08659 whole entry, looked up): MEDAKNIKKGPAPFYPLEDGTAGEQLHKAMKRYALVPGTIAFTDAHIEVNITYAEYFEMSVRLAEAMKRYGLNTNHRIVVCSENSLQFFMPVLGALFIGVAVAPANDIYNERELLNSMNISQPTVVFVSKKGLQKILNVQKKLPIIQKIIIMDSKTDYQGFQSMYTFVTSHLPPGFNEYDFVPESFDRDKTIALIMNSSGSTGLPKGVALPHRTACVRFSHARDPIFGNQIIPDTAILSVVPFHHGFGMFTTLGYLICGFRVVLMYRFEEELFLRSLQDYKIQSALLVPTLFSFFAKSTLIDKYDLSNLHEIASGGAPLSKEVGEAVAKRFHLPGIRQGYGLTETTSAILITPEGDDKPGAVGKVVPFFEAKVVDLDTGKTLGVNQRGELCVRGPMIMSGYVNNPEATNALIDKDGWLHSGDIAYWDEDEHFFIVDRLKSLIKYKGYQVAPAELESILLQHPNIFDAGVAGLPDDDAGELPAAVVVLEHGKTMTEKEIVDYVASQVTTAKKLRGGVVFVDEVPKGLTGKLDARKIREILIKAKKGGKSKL

**Q.** How did the Potency turn out when `Oc1ccccc1-c1cc(-c2ccco2)[nH]n1` was run?
**A.** active: 9.53 µM

**Q.** For `O=C(COc1ccccc1)NCC(c1ccc(Cl)cc1)N1CCCCC1` (stereo not given), which “activity change, negative = inhibition” value is on record?
**A.** inactive: 5.22%

**Q.** For `COc1ccc(NC2CCCN(C(=O)CCC3=NNC(=O)CC3)C2)cc1` (stereo not given), which “activity change, negative = inhibition” value is on record?
**A.** inactive: -3.33%

**Q.** With `COc1ccc(/C=C/c2ccc3ccccc3[n+]2C)cc1OC` as the molecule, how does the Potency read?
**A.** active: 16.9 µM

**Q.** With `O=C(O)c1nn(CC(=O)N2CCCCCC2)c(=O)c2ccccc12` as the molecule, how does the Potency read?
**A.** inconclusive: 19 µM [inhibitor, partial curve, poor fit]

**Q.** Which “activity change, negative = inhibition” value does the source give for `NNC(=O)c1csc(COc2cc(Cl)cc(Cl)c2)n1` here?
**A.** inactive: 3.89%

**Q.** `Cc1ccc(-n2cc(CNCCCN3CCCC3=O)c(-c3ccc(F)cc3)n2)cc1` was tested. Which Potency did it give?
**A.** inconclusive: 21.3 µM [inhibitor, partial curve, poor fit]

**Q.** Which “activity change, negative = inhibition” value does the source give for `Cc1cccc(NC(=O)Cn2c(=O)n(CCCCCC(=O)NCc3ccccc3)c(=O)c3sccc32)c1` here?
**A.** inactive: -1.51%

**Q.** How did the Potency turn out when `COc1cccc(C(=O)N/N=C(/CCC(=O)O)c2ccccc2)c1` was run?
**A.** inconclusive: 37.9 µM [inhibitor, partial curve, poor fit]

**Q.** For `COc1ccc2nc(NC(=O)CS(=O)(=O)Cc3ccccc3)sc2c1`, which Potency is on record?
**A.** inconclusive: 4.26 µM [inhibitor, full curve]

**Q.** With `COc1cc(C(=O)NCCNC(=O)c2ccc(C)nc2)cc(OC)c1OC` as the molecule, how does the “activity change, negative = inhibition” value read?
**A.** inactive: -1.19%

**Q.** For `CN(C)CCOC(=O)c1ccc2c(c1)S(=O)(=O)c1ccccc1C2=O`, which “activity change, negative = inhibition” value is on record?
**A.** inactive: 1.55%

**Q.** Which Potency does the source give for `N/C(=N\OC(=O)c1ccc([N+](=O)[O-])cc1)c1cccnc1` here?
**A.** active: 2.69 µM

**Q.** With `Cc1ccc(C(=O)Nc2ccccc2Cl)cc1` as the molecule, how does the Potency read?
**A.** active: 6.75 µM

**Q.** `COc1ccccc1-c1nnc(NC(=O)c2ccc3ncsc3c2)o1` was tested. Which Potency did it give?
**A.** active: 13.5 µM

**Q.** With `CN(C)C(CNC(=O)c1cnc(Cl)c(Cl)c1)c1ccccc1` (stereo not given) as the molecule, how does the “activity change, negative = inhibition” value read?
**A.** inactive: -0.762%

**Q.** `Cc1cccc(C(=O)NC(=S)Nc2ccc(Cc3ccncc3)cc2)c1` was tested. Which Potency did it give?
**A.** inconclusive: 23.9 µM [inhibitor, single point]

**Q.** For `Cc1ccc2cc3cc(C(=O)N4CCCCC4C)oc3nc2c1` (stereo not given), which Potency is on record?
**A.** active: 3.01 µM

**Q.** How did the Potency turn out when `CCCCNC(=O)c1nnn(-c2ccccc2)c1N` was run?
**A.** inconclusive: 23.9 µM [inhibitor, partial curve]

**Q.** How did the Potency turn out when `CCOC(=O)c1c(C)oc2cc(Br)c(OC(=O)N3CCOCC3)cc12` was run?
**A.** inconclusive: 23.9 µM [inhibitor, partial curve, poor fit]

**Q.** `O=C(CCC1CCCN(C(=O)c2ccc3c(c2)OCO3)C1)N1CCN(c2ccccn2)CC1` (stereo not given) was tested. Which “activity change, negative = inhibition” value did it give?
**A.** inactive: -2.79%

**Q.** How did the Potency turn out when `COc1ccc(CNC(=O)C2CCCN(Cc3nc(-c4cccc(C)c4)oc3C)C2)cc1` (stereo not given) was run?
**A.** inconclusive: 15.1 µM [inhibitor, partial curve, poor fit]

**Q.** How did the Potency turn out when `O=C(c1cc2ccccc2[nH]1)N(Cc1cccnc1)CC1CCCN(C2CCCCC2)C1` (stereo not given) was run?
**A.** inconclusive: 26.9 µM [inhibitor, partial curve, poor fit]

**Q.** With `Cc1ccc2nc(SCC(=O)Nc3nonc3N)[nH]c2c1` as the molecule, how does the Potency read?
**A.** inconclusive: 37.9 µM [inhibitor, partial curve, poor fit]

**Q.** `C=CCNC(=O)c1onc(CSc2cccc(OC)c2)c1C(=O)O` was tested. Which Potency did it give?
**A.** inconclusive: 33.8 µM [inhibitor, partial curve, poor fit]

**Q.** For `Cc1ccccc1NC(=O)C1CCN(S(=O)(=O)c2c(C)noc2/C=C/c2ccco2)CC1`, which “activity change, negative = inhibition” value is on record?
**A.** inactive: -2.03%

**Q.** How did the “activity change, negative = inhibition” value turn out when `COc1ccc(C(=O)NCc2ccc3c(c2)CCN3C(C)=O)c(OC)c1` was run?
**A.** inactive: -6.67%

**Q.** Which Potency does the source give for `Cc1ccc(Cn2c(SCc3ccc(C(=O)N4CCCCC4)cc3)nc3ccncc32)cc1` here?
**A.** inconclusive: 30.1 µM [inhibitor, single point]

**Q.** Which Potency does the source give for `O=[N+]([O-])c1cc(C=Nc2ccc3ccccc3c2)ccc1Br` here?
**A.** inconclusive: 21.3 µM [inhibitor, single point]

**Q.** For `COc1ccc([C@]23Cc4cc(OC)c(OC)cc4C(O2)c2c(cc(C)n(Cc4ccccc4)c2=O)O3)cc1`, which Potency is on record?
**A.** inconclusive: 6.92 µM [inhibitor, single point]

**Q.** With `COc1ccc(-c2nn(-c3ccccc3)cc2/C=N/Nc2ccccn2)cc1OC` as the molecule, how does the Potency read?
**A.** active: 10.7 µM

**Q.** For `Nc1nc(-c2ccccc2)c(N=Nc2ccccc2Cl)s1`, which Potency is on record?
**A.** inconclusive: 23.9 µM [inhibitor, single point]

**Q.** `COc1ccc(N=C2SCC(c3ccccc3)=NN2C)cc1` was tested. Which Potency did it give?
**A.** inconclusive: 21.3 µM [inhibitor, partial curve, poor fit]

**Q.** `O=C(N/N=C/c1ccc(N2CCOCC2)s1)c1ccccc1Cl` was tested. Which Potency did it give?
**A.** inconclusive: 37.9 µM [inhibitor, partial curve, poor fit]

**Q.** How did the “activity change, negative = inhibition” value turn out when `COc1ccc(NC(=O)CSc2oc(-c3cccs3)nc2S(=O)(=O)c2ccccc2)c(OC)c1` was run?
**A.** inactive: -5.39%

**Q.** Which Potency does the source give for `CCn1c2ccccc2c2cc(NC(=O)c3cccc(OC)c3OC)ccc21` here?
**A.** inconclusive: 30.1 µM [inhibitor, partial curve, poor fit]

**Q.** With `O=C(O)c1cn(Cc2ccccc2)c2ccc(Cl)cc2c1=O` as the molecule, how does the “activity change, negative = inhibition” value read?
**A.** inactive: 0.137%

**Q.** Which Potency does the source give for `COc1ccccc1C(=O)OCC(=O)Nc1ccc(OC(F)F)cc1` here?
**A.** inconclusive: 23.9 µM [inhibitor, single point]

**Q.** `O=C(Nc1ccc2c(c1)CCCN2C(=O)c1cccs1)c1ccc(F)c(F)c1` was tested. Which “activity change, negative = inhibition” value did it give?
**A.** inactive: -13.8%

**Q.** For `CCOc1ccc(C(=O)NCc2ccccc2)cc1Br`, which “activity change, negative = inhibition” value is on record?
**A.** inactive: -17.8%

**Q.** How did the Potency turn out when `C/C(=N\NC(=O)c1cccs1)C(C)(C)C` was run?
**A.** inconclusive: 5.36 µM [inhibitor, partial curve, poor fit]

**Q.** How did the Potency turn out when `C=C(C)CSc1nc(N)c2c3c(sc2n1)CCC3` was run?
**A.** inconclusive: 4.78 µM [inhibitor, partial curve]

**Q.** For `O=C(O)CCC(=O)Nc1ccc(N=Nc2ccccc2)cc1`, which Potency is on record?
**A.** active: 10.7 µM

**Q.** Which Potency does the source give for `COc1cccc(OCc2cc(/C=N/Nc3ccc(C(=O)O)cc3)ccc2OC)c1` here?
**A.** active: 6.75 µM

**Q.** `CCOc1ccccc1C(=O)Nc1nnc(CC)s1` was tested. Which Potency did it give?
**A.** inconclusive: 26.9 µM [inhibitor, partial curve, poor fit]

**Q.** With `COc1ccccc1/C=C/c1nc(C#N)c(NC2CCCCC2)o1` as the molecule, how does the Potency read?
**A.** inconclusive: 10.7 µM [inhibitor, partial curve, poor fit]

**Q.** For `COc1ccc(N=Nc2nc3ccc(Br)cc3n2C)cc1`, which Potency is on record?
**A.** active: 0.379 µM

**Q.** With `Cc1cc(C)n2nc(SCc3nnc(SCc4ccccc4C)s3)nc2n1` as the molecule, how does the Potency read?
**A.** inconclusive: 19 µM [inhibitor, partial curve]

**Q.** `Fc1ccc2nc(N3CCCCC3)sc2c1` was tested. Which Potency did it give?
**A.** active: 4.78 µM

**Q.** Which Potency does the source give for `OC1CCN(c2c3c(nc4cc(-c5cccc(F)c5)nn24)CCCC3)CC1` here?
**A.** inconclusive: 33.8 µM [inhibitor, single point]

**Q.** For `COc1ccc(NC(=O)Cc2cccc3ccccc23)cc1`, which Potency is on record?
**A.** inconclusive: 23.9 µM [inhibitor, partial curve]

**Q.** Which Potency does the source give for `CN1CCN(c2nc(-c3ccc(Br)cc3)nnc2-c2ccccc2)CC1` here?
**A.** inconclusive: 42.6 µM [inhibitor, partial curve, poor fit]

**Q.** How did the Potency turn out when `Fc1ccccc1CSCc1nc2ccccc2[nH]1` was run?
**A.** active: 16.9 µM

**Q.** `Cc1nn(-c2ccccc2)c(N)c1N=Nc1cccnc1` was tested. Which Potency did it give?
**A.** active: 13.5 µM

**Q.** `Cc1cccc(Nc2nnc(SC/C(O)=C(\C#N)c3nc4ccccc4[nH]3)s2)c1C` was tested. Which Potency did it give?
**A.** inconclusive: 23.9 µM [inhibitor, partial curve, poor fit]

**Q.** `CCSc1ccc(-c2cccc([N+](=O)[O-])c2)nn1` was tested. Which Potency did it give?
**A.** inconclusive: 21.3 µM [inhibitor, partial curve]

**Q.** For `COc1ccc(S(=O)(=O)CCc2nc3ccccc3s2)cc1`, which “activity change, negative = inhibition” value is on record?
**A.** inactive: 0.547%

**Q.** `O=C(/C=C/c1ccc(OCCCF)cc1)N1CCOCC1` was tested. Which Potency did it give?
**A.** active: 23.9 µM

**Q.** `CN(CC(=O)Nc1cccc(F)c1)C(=O)c1sc2ccccc2c1Cl` was tested. Which Potency did it give?
**A.** inconclusive: 26.9 µM [inhibitor, single point]

**Q.** With `Cc1ccc(NC(=O)C2CCCN(c3ncnc4c3nc3n4CCCCC3)C2)nc1` (stereo not given) as the molecule, how does the “activity change, negative = inhibition” value read?
**A.** inactive: 0.312%

**Q.** Which Potency does the source give for `COc1ccccc1NC(=O)Nc1nc(CC(=O)N2CCN(c3ccccc3OC)CC2)cs1` here?
**A.** active: 16.9 µM

**Q.** With `CCCOc1ccc(C(=O)NNC(=S)NC(=O)c2ccco2)cc1` as the molecule, how does the Potency read?
**A.** inconclusive: 30.1 µM [inhibitor, partial curve, poor fit]

**Q.** With `CCn1c(CNC(=O)c2ccc(OC)cc2)nnc1SCC(=O)Nc1cc(C)ccc1C` as the molecule, how does the “activity change, negative = inhibition” value read?
**A.** inactive: -8.79%

**Q.** How did the Potency turn out when `Cn1ccc2cc(-c3ccc4ncnc(NCc5ccc6c(c5)OCO6)c4c3)ccc21` was run?
**A.** inconclusive: 26.9 µM [inhibitor, single point]

**Q.** With `Cn1nc(C(=O)NCC2COc3ccccc3O2)c2ccccc2c1=O` (stereo not given) as the molecule, how does the “activity change, negative = inhibition” value read?
**A.** inactive: 3.47%

**Q.** `CC(OC(=O)c1ccc(O)cc1)C(=O)Nc1cc(C(F)(F)F)ccc1Cl` (stereo not given) was tested. Which “activity change, negative = inhibition” value did it give?
**A.** inactive: 2%

**Q.** With `CCCc1nnc2n1N=C(c1ccc(C)cc1)CS2` as the molecule, how does the “activity change, negative = inhibition” value read?
**A.** inactive: -0.027%

**Q.** `CCC(C)NC(=O)COCc1cc(-c2ccc3c(c2)OCO3)on1` (stereo not given) was tested. Which Potency did it give?
**A.** inconclusive: 10.7 µM [inhibitor, partial curve, poor fit]

**Q.** With `CC(Sc1ccc2c(c1)OCCO2)C(=O)Nc1ccc2c(c1)OCO2` (stereo not given) as the molecule, how does the Potency read?
**A.** inconclusive: 19 µM [inhibitor, partial curve, poor fit]

**Q.** `Cn1c(=O)c2sccc2n2c(CCCC(=O)Nc3ccc(Oc4ccccc4)cc3)nnc12` was tested. Which “activity change, negative = inhibition” value did it give?
**A.** inactive: -19.3%

**Q.** How did the “activity change, negative = inhibition” value turn out when `Cc1ccccc1C(=O)N1CCC(C(=O)Nc2ccccn2)CC1` was run?
**A.** inactive: 7.58%

**Q.** For `O=C(Nc1cccc(-c2cn3cccnc3n2)c1)c1ccc(Br)o1`, which Potency is on record?
**A.** inconclusive: 6.75 µM [inhibitor, partial curve]

**Q.** `CCOC(=O)C1(Cc2cccc(Cl)c2)CCCN(C(=O)C(C)(C)C)C1` (stereo not given) was tested. Which Potency did it give?
**A.** inconclusive: 7.57 µM [inhibitor, full curve, poor fit]

**Q.** `N#Cc1nc(-c2cccc3ccccc23)oc1NCCN1CCCCC1` was tested. Which Potency did it give?
**A.** inconclusive: 23.9 µM [inhibitor, single point]

**Q.** For `CCOc1ccc(OCC(=O)Nc2ccc(S(=O)(=O)Nc3cc(C)on3)cc2)cc1`, which Potency is on record?
**A.** inconclusive: 12 µM [inhibitor, partial curve]
